# The supplement of paper PMC11417369
# The list shows a part of the results.
# Test system: PfHDP1 homeodomain (GST-tagged)
# Assay: gcPBM binding intensity (ln(normalized median fluorescence intensity)); higher = stronger DNA binding
# Summary of the method: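 Binding intensity is defined as the maximum Masliner-normalised natural-log median intensity across replicate spots for either probe orientation. It was measured on an Agilent 4 × 180k array of primer-extended double-stranded 36-bp intergenic genomic probes and negative controls, to which GST-tagged P. falciparum DNA-binding domains made in E. coli were applied for 1 h in 1× PBS with 1% milk, 0.2 mg/ml BSA, 0.5% salmon testes DNA and 0.03% Triton X-100. Detection was by Alexa488 anti-GST antibody and scanning at 488 nm.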
row,Sequence,gcPBM binding intensity (ln)
1,TATAATCAATGCCAAAGTACATATTAATATATTTAT [XGTACX_site4558],6.32
2,TATATAATATTACGTTGTACACTTTAATCTCCCTTC [XGTACX_site5577],6.94
3,ACTAATATGCAATATTGTACATATATATAGAAATAT [XGTACX_site5273],7.76
4,ACCATTTGAAAATTCACACACTTTATTTTGTTATAT [CACACA_site5976],6.85
5,TTTTTTGACATTCCTTTTAATAATTAACGAAAGGCA [GTGCAC_negctrl_site377],6.13
6,CTTAAAATGATAATATGTACACATAAATAATATATA [XGTACX_site8330],6.52
7,CACTTTAATTTATGCACACATATGGAACAACAGCCA [CACACA_site994],10.6
8,TAAGTTTGTCAATCAACACACACCTATTTATTATAT [CACACA_site3919],6.53
9,AAAGATATTTTTATCTCACACATATAATATATATAT [CACACA_site5478],8
10,TATTTACAGACATGCGCACACATAAATAAATAATAG [CACACA_site2411],7.5
11,GTTACTGCATACATAACACACATATTCAAAACACAT [CACACA_site3502],6.65
12,TAAAATTTAAGTTATACACACTTAAGTAACATCATC [CACACA_site6395],6.76
13,TATAGAAAATTTATATGTACATATATATATATATAT [XGTACX_site4451],9.33
14,AAATACAAGGGACATGCATACCACTATTTTTTAAAT [TGCATGCA_site588],6.28
15,TTTATATAATAGTTATGTACTTAAACGAAAGATACA [XGTACX_site8495],6.31
16,AAATGTATACACATGGTGCGTAATATATTATATATA [GTGCAC_site9877],7.85
17,CTACCAAATCTATAGACACACATATATATATATATT [CACACA_site2486],6.61
18,GAACTAATAATGAAAAGTACACATACACATATATAT [XGTACX_site6789],6.68
19,AATAAATTTCAAAATTGTACTCATTTCCTTTCCCAA [XGTACX_site5887],6.04

row,Sequence,gcPBM binding intensity (ln)
1,TATGATTTTTATATATGTACGTATGGTGTTTTACAA [XGTACX_site6100],6.56
2,TACGCCTATAACGGCTGTACACCTTACTTTTTTTAA [XGTACX_site6818],6.22
3,TGTGAAATAAAATTTGTACACACATATATATATATA [CACACA_site8093],9.29
4,TTCATTCAAATCCAAGCATGCTTTATTAAAAAATTA [TGCATGCA_site567],6.38
5,ATATATAATTCCCAAGTGCATTTATTTTAATTATTA,9.87
6,ATAACATACATAACAACACACAATATTTATCTGTAT [CACACA_site4279],6.61
7,TTCTTCTGTTTTATTACACACCATTTTGTGTCTACA [CACACA_site8643],7.31
8,CTCTATATATTATTATGTACTAAATGTATGTATGTA [XGTACX_site7151],6.6
9,AAAACACAATTTATTACACACATATATTATATATTA [CACACA_site1420],6.62
10,ATGAATGAATAAAGAAGTACGGAAATATTAACAAAA [XGTACX_site4695],7.01
11,TAACACACTAAGAAAAGTACTGATTAATATAATTTT [XGTACX_site5536],6.09
12,TTTATGAAATGTTGCACACAAAAAACAACATGTTTT [CACACA_site1440],9.63
13,ATTCCTGGACCGTTCATGCACTTGCAGAACGTCCAT,7.07
14,AAATGATATAAATTATAAAATGGATTTTTTCCATTG [CACACA_negctrl_site420],5.91
15,TTTAAAAATTAATTCTGTACACATTTTTATTATATT [XGTACX_site4212],6.64
16,AAAAAAAAAAAAAGTGCACACGATTTAAGGCCTATA [CACACA_site2823],8.86
17,ATATATATATATATATGTACACATATATTTCTTTTC [XGTACX_site3443],9.41
18,ATAAAATTTTATATGGGTACATAATATAATATATAT [XGTACX_site8160],6.64
19,CGCCTATAAGCTTAGACACACAAATAAATAAATATA [CACACA_site1264],6.14

row,Sequence,gcPBM binding intensity (ln)
1,TTAAAAATGTTGGAAAGTACATATTTTTTAAAAGTA [XGTACX_site802],6.25
2,TACCTAATTCGGTCCCGTACAAGTTAGTTTCAATTC [XGTACX_site2703],5.91
3,TATTGGGGGTATAAACACAGTAAGTAAATAAATAAA [CACACA_negctrl_site1680],7.02
4,TATTTTTTATAATAATGTACATATATATATATAATA [XGTACX_site2329],6.4
5,AATATCATATAAAAATGTACAAATTCTAAAACACGA [XGTACX_site1442],6.85
6,ATGTATGTGTAACATAGTACTTTTTAAAAGGATATT [XGTACX_site5328],6.6
7,TATAGATACATATACACACACACACCCACATATATA [CACACA_site3436],7.08
8,ATCAAACCTTTTAAATGTACATTCGGAGTAAAAAAA [XGTACX_site282],6.54
9,GTATTCATGCTAAAGGTGCAATAATTTTTATAATAA [GTGCAC_site9603],9.39
10,AAGATAAAATTATGTAGTACAAAAAAAAATAAAAAA [XGTACX_site139],6.61
11,GTATATTATTTACGTTTGCACTTCATTTTATAGTAA,9.08
12,TATTAATTGTGGCACCTTGTATGTTTACAATGACAT [CACACA_negctrl_site1383],6.75
13,AATGGATGAATGAATGTATGAATGAATGTATGAATG [CACACA_negctrl_site91],6.76
14,TTCTTCAAAAAAAATTGTACACATCTCTCAAATGTT [XGTACX_site2952],6.47
15,AAAAAAAAAAAAAAGAGTACACAGACGTTCAAAGGT [XGTACX_site7566],6.85
16,TGTATGTATTAATGCGCACACAAAAAATAACAATAT [CACACA_site1848],7.88
17,ATATATATATATAAATGTACATTGTGTGTTGTAAGA [XGTACX_site2434],8.88
18,ATAAAAAAAAAATAATGTACTTATATATATATATAT [XGTACX_site8282],9.13
19,ATATAGATATATAGTAGTACTTGTTATATAAGATAA [XGTACX_site6336],6.44
